Laboratory results as given in article PMC2814318 (Journal of neurochemistry, 2009).

Biological target: His-tagged β1b subunit (rat, UniProt P54283 1-597)
Assay: glutathione-coated plate-binding assay

UniProt P54283, sequence (P54283 whole entry): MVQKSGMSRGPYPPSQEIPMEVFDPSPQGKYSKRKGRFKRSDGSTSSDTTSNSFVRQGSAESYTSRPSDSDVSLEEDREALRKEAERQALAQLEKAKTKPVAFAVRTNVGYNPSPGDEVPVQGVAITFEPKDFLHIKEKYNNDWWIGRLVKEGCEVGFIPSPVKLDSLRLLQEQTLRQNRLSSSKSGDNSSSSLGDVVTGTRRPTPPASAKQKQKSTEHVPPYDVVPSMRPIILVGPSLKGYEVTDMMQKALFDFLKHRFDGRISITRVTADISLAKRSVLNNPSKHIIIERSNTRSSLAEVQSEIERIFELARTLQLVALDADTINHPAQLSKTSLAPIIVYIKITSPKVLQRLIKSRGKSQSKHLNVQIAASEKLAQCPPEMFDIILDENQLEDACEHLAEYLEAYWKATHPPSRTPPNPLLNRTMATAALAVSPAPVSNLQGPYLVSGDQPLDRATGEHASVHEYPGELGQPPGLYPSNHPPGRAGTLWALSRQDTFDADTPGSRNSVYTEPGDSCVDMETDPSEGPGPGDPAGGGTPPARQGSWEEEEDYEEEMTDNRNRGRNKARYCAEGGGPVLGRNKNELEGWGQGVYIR

B1: Thr286-autophosphorylated CaMKIIα (enzyme)
chain: not shown
modifications: phosphothreonine at 286 (autophosphorylated; 32P-labelled for the plate-binding assay)
B1: binds.
